Laboratory results as given in the supplement of paper PMC4604168 (melanoma cell lines).
The list shows a part of the results. Many values rest on one well or one pass, so single values are uncertain.

Test system: UACC257
Test: cell count relative to DMSO control; melanoma cells; higher = more viable cells
Conditions: library dose: standard library concentration; 72 h
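Note: cells treated in 1,536-well plates, then fixed and DAPI-stained, with nuclei counted from automated high-throughput microscope images.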

| SMILES | cell count |
| --- | --- |
| NC(=O)c1ccc(N(C(N)=O)c2c(F)cccc2F)nc1-c1ccc(F)cc1F + C=C(c1ccc(C(=O)O)cc1)c1cc2c(cc1C)C(C)(C)CCC2(C)C [Bexarotene] (first compound 2 µM, partner dose 10 µM) | 83.9% |
| CCc1ccc(CCOc2ccc(CC3SC(=O)NC3=O)cc2)nc1 (stereo unspecified) [pioglitazone] + N#Cc1c(O)c2c(-c3ccc(-c4ccccc4O)cc3)csc2[nH]c1=O [A769662] (first compound 10 µM, partner dose 10 µM) | 89.5% |
| CC(C)(C)c1cnc(CSc2cnc(NC(=O)C3CCNCC3)s2)o1 + Cc1cc([N+](=O)[O-])ccc1NS(=O)(=O)c1cc(Cl)ccc1Cl [FH535] (first compound 0.05 µM, partner dose 5 µM) | 57.9% |
| NC(=O)c1ccc(N(C(N)=O)c2c(F)cccc2F)nc1-c1ccc(F)cc1F + CN(c1ncccc1CNc1nc(Nc2ccc3c(c2)CC(=O)N3)ncc1C(F)(F)F)S(C)(=O)=O [PF562271] (first compound 2 µM, partner dose 0.4 µM) | 74.7% |
| Cc1ccc(NC(=O)c2cccc(N(C)C)c2)cc1NC(=O)c1ccc(O)cc1 + Cc1cc(N2CCOCC2)cc2[nH]c(-c3c(NC[C@@H](O)c4cccc(Cl)c4)cc[nH]c3=O)nc12 [BMS536924] (first compound 10 µM, partner dose 1 µM) | 99.9% |
| Cc1ccc(NC(=O)c2cccc(N(C)C)c2)cc1NC(=O)c1ccc(O)cc1 + Cn1cc(/C=C2\C(=O)Nc3cccnc32)c2ccccc21 [GW441756] (first compound 10 µM, partner dose 2 µM) | 84.7% |
| CC(C)(C)c1cnc(CSc2cnc(NC(=O)C3CCNCC3)s2)o1 + OCCn1cc(-c2cnc3nnn(Cc4ccc5ncccc5c4)c3n2)cn1 [PF04217903] (first compound 0.05 µM, partner dose 5 µM) | 87.1% |
| NC(=O)c1ccc(N(C(N)=O)c2c(F)cccc2F)nc1-c1ccc(F)cc1F + CCCCCCCCc1ccc(CCC(N)(CO)CO)cc1 [fingolimod] (first compound 2 µM, partner dose 10 µM) | 71.8% |
| NC(=O)c1ccc(N(C(N)=O)c2c(F)cccc2F)nc1-c1ccc(F)cc1F + C[C@@H](Oc1cc(-c2cnn(C3CCNCC3)c2)cnc1N)c1c(Cl)ccc(F)c1Cl [Crizotinib] (first compound 2 µM, partner dose 1 µM) | 89.4% |
| CCCCCCCCc1ccc(CCC(N)(CO)CO)cc1 [fingolimod] + C=C(c1ccc(C(=O)O)cc1)c1cc2c(cc1C)C(C)(C)CCC2(C)C [Bexarotene] (first compound 10 µM, partner dose 10 µM) | 72.1% |
| NC(=O)c1ccc(N(C(N)=O)c2c(F)cccc2F)nc1-c1ccc(F)cc1F + O=C(O)c1ccc(-c2c[nH]c3ncc(-c4ccccc4)cc23)cc1C1CCCC1 [GSK650394] (first compound 2 µM, partner dose 0.8 µM) | 87.2% |
| CCCCCCCCc1ccc(CCC(N)(CO)CO)cc1 [fingolimod] + CS(=O)(=O)CCNCc1ccc(-c2ccc3ncnc(Nc4ccc(OCc5cccc(F)c5)c(Cl)c4)c3c2)o1 [lapatinib] (first compound 10 µM, partner dose 4 µM) | 34.4% |
| CC(C)(C)c1cnc(CSc2cnc(NC(=O)C3CCNCC3)s2)o1 + CN(NC(=O)CC(=O)NN(C)C(=S)c1ccccc1)C(=S)c1ccccc1 [STA4783] (first compound 0.05 µM, partner dose 0.03 µM) | 81.1% |
| CCCCCCCCc1ccc(CCC(N)(CO)CO)cc1 [fingolimod] + COc1ccc(Cl)c(Nc2nc3ccccc3nc2NS(=O)(=O)c2cccc(NC(=O)C(C)(C)N)c2)c1 [XL147] (first compound 10 µM, partner dose 4 µM) | 59.1% |
| CCCCCCCCc1ccc(CCC(N)(CO)CO)cc1 [fingolimod] + C[C@@H]1CCN(C(=O)CC#N)C[C@@H]1N(C)c1ncnc2[nH]ccc12 [CP690550] (first compound 10 µM, partner dose 5 µM) | 77% |
| COc1cc2c(Oc3ccc4[nH]c(C)cc4c3F)ncnc2cc1OCCCN1CCCC1 [cediranib] + CCN(CC)CCCCNc1ncc2cc(-c3cc(OC)cc(OC)c3)c(NC(=O)NC(C)(C)C)nc2n1 [PD173074] (first compound 2 µM, partner dose 0.5 µM) | 112% |
